Data published in PubChem BioAssay (NCI).
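Method: 48-hour compound exposure of cells in 96-well plates, five concentrations, linear interpolation of endpoints. GI50 is the concentration that inhibits growth by half. At the TGI there is no net growth.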

Test system: NCI-H322M lung
Experiment: inhibition of tumour cell growth, NCI panel, 48 h

| Structure (SMILES) | GI50 [µM] | TGI [µM] |
| --- | --- | --- |
| Cc1ccc(-c2nc3ccc(C(=O)N=Nc4c(O)[nH]c5ccc(Cl)cc45)cc3[nH]2)cc1 | 16.2 | > 100 |
| O=C(/C=C/c1ccc(F)cc1)c1nc2ccccc2n1Cc1ccc(F)cc1 | 3.23 | 31.4 |
| CC(C)C[C@H](NC(=O)CNC(=O)C[C@H]1O[C@@H]2OC3(C)CC[C@H]4[C@H](C)CC[C@@H]([C@H]1C)[C@@]24OO3)B(O)O | 14.6 | > 65 |
| Cn1cc(-c2cc(N)n3nc(-c4c[nH]c5ccc(Br)cc45)cc3n2)c2cc(Br)cnc21 | 2.21 | 7.43 |
| Cc1ccc([N+](=O)[O-])c(C(=O)Nc2ccc(-c3ccc4c(c3)NC(=O)/C4=C\c3ccc[nH]3)cc2)c1 | > 100 | > 100 |
